Results published in PubChem BioAssay AID540317 (National Center for Advancing Translational Sciences (NCATS), 2011).
The campaign covered roughly 390,000 compounds. About 2,200 (0.56%) were called active. This list was built around the results that the source calls inconclusive (neither active nor inactive); the mix of calls is not that of the screen. Calls come from the whole dose curve; as a rule, active = well fitted inhibition curve with a large enough effect; inconclusive = small, poorly fitted or top-dose-only effect; inactive = no such curve, though single readings can be large or run the other way. A potency beside an inconclusive call is a rough fit, not a confirmed value.

Target: Chromobox protein homolog 1 (Homo sapiens) (UniProt P83916)
Test: HTS for Inhibitors of HP1-beta Chromodomain Interactions with Methylated Histone Tails; note: nearly all actives have a fitted effect of over 70% in size
Settings: AlphaScreen HP1-beta / biotin-H3K9me3 peptide binding; series mostly up to 114 µM; activity change, negative = inhibition: at the top concentration
In short: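 Compound inhibition of the preformed complex between 50 nM HP1-beta and 50 nM biotinylated H3K9me3 peptide was read by AlphaScreen. Buffer was PBS pH 7.4 with 0.01% Tween-20. Incubations ran 30 min at room temperature, with 10 ug/mL donor/acceptor beads.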
Potency is the fitted concentration of half-maximal effect; tags give direction and shape of the fitted curve.

UniProt P83916, sequence (P83916 whole entry, looked up): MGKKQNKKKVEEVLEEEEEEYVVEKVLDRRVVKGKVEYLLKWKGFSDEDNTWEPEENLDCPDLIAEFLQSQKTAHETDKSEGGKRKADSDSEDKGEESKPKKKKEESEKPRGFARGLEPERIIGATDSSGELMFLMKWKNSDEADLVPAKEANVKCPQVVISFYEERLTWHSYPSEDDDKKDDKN

SMILES	Potency	activity change, negative = inhibition
O=C(CNc1ccc2c(c1)OCO2)N/N=C\c1ccccc1Cl	inconclusive: 50.1 µM [inhibitor, partial curve, poor fit]	
CCOC(=O)/C=C(C)\C=C\c1c[nH]c2ccccc12	inconclusive: 79.4 µM [inhibitor, single point]	
Cc1ccc(Cn2c(C(C)NC(=O)c3ccccc3)nc3ccccc32)cc1 (stereo not given)		inactive: 75.9%
Cc1ccc2cc(C#N)c(NCCCNC(=O)C3CCCO3)nc2c1 (stereo not given)		inactive: 42.5%
CCC1CCCCN1C(=O)CSc1nc2c([nH]c3ccccc32)c(=O)n1-c1ccc(OC)cc1 (stereo not given)		inactive: 16.2% [at 57 µM]
O=C(CCn1c2c(c3ccccc31)CCCC2)NNC(=O)c1ccc(Cl)c([N+](=O)[O-])c1	inconclusive: 39.8 µM [inhibitor, single point]	
CCn1cc2nc(SCC(=O)Nc3ccccc3C(F)(F)F)n(Cc3ccc(C)cc3)c(=O)c2n1		inactive: 8.44%
Oc1ccccc1C1=Nc2ncnn2C(c2ccc(F)cc2)C1 (stereo not given)		inactive: 33.1%
C#CCSc1nc2sc3c(c2c(=O)n1C)CCC3	inconclusive: 70.8 µM [inhibitor, single point]	
Cc1cc([N+](=O)[O-])nn1Cc1ccc(C(=O)N/N=C/c2ccc(N(C)C)cc2)cc1		inactive: -5.23%
Cc1cc(OCC(=O)N(Cc2ccc(N(C)C)cc2)CC2CCCO2)ccc1Cl (stereo not given)	inconclusive: 20 µM [inhibitor, full curve]	
O=C(O)CN1C(=O)/C(=C/c2ccc(N3CCCCC3)o2)SC1=S	inconclusive: 14.1 µM [inhibitor, full curve]	
Cc1ccc(N=C2NC(=O)/C(=C/C=C/c3ccco3)S2)cc1C	inconclusive: 10 µM [inhibitor, full curve, poor fit]	
CC1CCN(CC(=O)Nc2ccc(S(=O)(=O)N3CCC(C)CC3)cc2)CC1	inconclusive: 56.2 µM [inhibitor, partial curve, poor fit]	
COc1ccc(/C=N/Nc2ccc([N+](=O)[O-])cc2)cc1O	inconclusive: 89.1 µM [inhibitor, single point]	
COc1cccc(CN2CCC(N(CCc3ccccc3)Cc3ccccc3)CC2)c1OC	inconclusive: 14.1 µM [inhibitor, full curve, poor fit]	
CCOC(=O)c1sc(N2C(=O)C(O)=C(C(=O)c3ccco3)C2c2ccco2)nc1C (stereo not given)	inconclusive: 50.1 µM [inhibitor, partial curve, poor fit]	
Cn1c(SCc2nc3ccccc3s2)nnc1-c1ccc2c(c1)OCO2	inconclusive: 79.4 µM [inhibitor, partial curve, poor fit]	
OC(CON=C1c2ccccc2-c2ccccc21)CN1CCNCC1 (stereo not given)	inconclusive: 20 µM [inhibitor, full curve, poor fit]	
Cn1c(-c2ccc(Br)cc2)cnc1NCc1cccnc1	inconclusive: 56.2 µM [inhibitor, partial curve, poor fit]	
CCOc1ccc(-c2nnc(SCC(=O)Nc3ccc(C)cc3Cl)o2)cc1		inactive: 58.1%
C[N+]12CCCCC1[C@@H](CO)CCC2 (stereo not given in full)		inactive: 13.5%
CC(C)(C)c1nnc(NC(=O)Cc2ccc(Br)cc2)s1	inconclusive: 39.8 µM [inhibitor, single point]	
COC(=O)C1CCN(CC(=O)Nc2ccc3c(c2)OCCO3)CC1		inactive: 11.3% [at 57 µM]

SMILES	Potency	activity change, negative = inhibition
COc1cccc2sc(NNC(=O)c3nc4ccccc4s3)nc12	inconclusive: 15.8 µM [inhibitor, full curve]	
COc1cc(N)c(C(=O)c2nccc3cc(OC)c(OC)cc23)cc1OC		inactive: 0.816%
COc1ccccc1CNC(=O)CNCC1CCCO1 (stereo not given)	inconclusive: 6.31 µM [inhibitor, full curve]	
Cc1cc(N=Nc2ccccc2)c(NCC(O)C(O)C(O)CO)cc1C (stereo not given)	inconclusive: 17.8 µM [inhibitor, full curve]	
O=C1OCc2ccc([N+](=O)[O-])cc21		inactive: 37%
COc1cc(/C=N/N(C)C)ccc1OC(=O)c1cccs1	inconclusive: 56.2 µM [inhibitor, single point]	
O=C(O/N=C\c1ccc(N2CCCCC2)c([N+](=O)[O-])c1)c1ccc(Cl)cc1Cl	inconclusive: 31.6 µM [inhibitor, partial curve]	
Cc1ccc(-n2cc(C(C)(C)C)[nH]c2=S)cc1	inconclusive: 31.6 µM [inhibitor, partial curve, poor fit]	
O=C(O)CCCN1C(=O)/C(=C\c2ccc(-c3nc4ccccc4s3)o2)SC1=S	active: 17.8 µM	
CN(C)CC(C)(C)CNC(=S)NCc1ccc2c(c1)OCO2	inconclusive: 17.8 µM [inhibitor, full curve, poor fit]	
O=C(COC(=O)c1ccco1)Nc1nc2c(F)c(F)c(F)cc2s1		inactive: 8.85%
CCOC(=O)C1CCN(Cc2ccc(OC)c(C)c2OC)CC1	inconclusive: 50.1 µM [inhibitor, partial curve]	
CC1CN(CCOc2ccccc2C(C)C)CC(C)O1 (stereo not given)	inconclusive: 14.1 µM [inhibitor, partial curve, poor fit]	
O=C1C(Cl)=C(NCCN2CCOCC2)C(=O)c2ccccc21	inconclusive: 70.8 µM [inhibitor, partial curve, poor fit]	
Cc1cccc(CN2C(=O)[C@H]3Cc4c([nH]c5ccccc45)C(C)(C)N3C2=O)c1	inconclusive: 79.4 µM [inhibitor, single point]	
C/C=C\C=C/C(=O)Nc1cccc(C2=NOC3(C2)C[C@@H](C(N)=O)N(C(=O)COc2ccc(Cl)cc2)C3)c1 (stereo not given in full)	inconclusive: 39.8 µM [inhibitor, full curve]	
O=C1NN(c2cccc(Br)c2)C(=O)/C1=C/c1ccc(-c2cc([N+](=O)[O-])ccc2O)o1	inconclusive: 7.08 µM [inhibitor, full curve]	
c1ccc(SSc2ccccn2)nc1	inconclusive: 11.2 µM [inhibitor, full curve]	
COc1ccc(-n2c(COc3cccc(C)c3)n[nH]c2=S)cc1		inactive: 18%
COC(=O)c1sc(=S)sc1C(=O)OC	inconclusive: 50.1 µM [inhibitor, partial curve, poor fit]	
O=C1CSC(=S)N1N=Cc1ccccc1O	inconclusive: 50.1 µM [inhibitor, partial curve]	
O=C(/C=C/c1ccco1)N1CCN(S(=O)(=O)c2cccc([N+](=O)[O-])c2)CC1	inconclusive: 39.8 µM [inhibitor, partial curve, poor fit]	
CC(=O)Nc1ccc(/C=C(\C#N)C(=O)NCc2ccccc2)cc1	inconclusive: 25.1 µM [inhibitor, single point]	
CN(C)c1cc(NC(=O)CNC(C)(C)C)c2ccccc2n1	inconclusive: 14.1 µM [inhibitor, partial curve, poor fit]	

SMILES	Potency	activity change, negative = inhibition
Cc1cc(CNC(=O)COc2ccc(C)c(C)c2)c2ccccc2n1		inactive: 34.6%
C=CCn1cccc(C(=O)Nc2ccc(OC)c(Cl)c2)c1=O		inactive: 83%
COCCNCCCCOc1ccc(Br)cc1C	inconclusive: 56.2 µM [inhibitor, partial curve, poor fit]	
CCOC(=O)CN1C(=O)NC2(CCCc3ccccc32)C1=O (stereo not given)		inactive: -0.601%
Cc1cs/c(=N\N=C\c2ccccc2)n1Cc1ccco1	inconclusive: 35.5 µM [inhibitor, partial curve, poor fit]	
O=S(=O)(c1ccc(F)cc1)N1CCN(CC(O)COCc2cccs2)CC1 (stereo not given)	inconclusive: 50.1 µM [inhibitor, partial curve]	
CN(C)C(=O)c1cc(C(=O)c2ccc(C(F)(F)F)cc2F)c[nH]1		inactive: 16.7%
COC(=O)CCC(C(=O)CN1C(=O)c2ccccc2C1=O)N1C(=O)c2ccccc2C1=O (stereo not given)	inconclusive: 89.1 µM [inhibitor, single point]	
CCOc1ccc(CCNC(=O)COC(=O)/C=C/c2ccc(OCC#N)c(OC)c2)cc1OCC		inactive: 27.3%
O=C(NC1=NCCS1)C1CCN(S(=O)(=O)c2cc([N+](=O)[O-])ccc2Cl)CC1	inconclusive: 35.5 µM [inhibitor, partial curve]	
COc1ccc(OC)c(CNC(=O)C2CCCCN2S(=O)(=O)c2ccc(F)cc2)c1 (stereo not given)		inactive: -8.4%
Nc1ccc(N2CCCCC2)cc1N1CCCCC1	inconclusive: 15.8 µM [inhibitor, full curve, poor fit]	
CCc1nnc2c(Nc3ccc(N(CC)CC)cc3C)nc3ccccc3n12	inconclusive: 28.2 µM [inhibitor, full curve]	
O=[N+]([O-])c1nc2ccccc2[nH]1		inactive: 11.9%
Cc1cc2c(cc1C)NC1(C[C@H]3CCC(=O)N4CC[C@@H](C1)[C@@H]34)C(=NC(C)(C)CC(C)(C)C)N2 (stereo not given in full)	inconclusive: 20 µM [inhibitor, full curve]	
O=C(O)c1ccc(-c2ccccc2)[nH]1		inactive: 5.63%
O=C(O)c1cccc(NC2=C(Cl)C(=O)c3ccccc3C2=O)c1	inconclusive: 70.8 µM [inhibitor, single point]	
C=CCn1c(O)c(N=Nc2ccccc2C)c2ccccc21	inconclusive: 89.1 µM [inhibitor, single point]	
CCOC(=O)c1c(C)[nH]c(N=Nc2ccccc2Cl)c1C	inconclusive: 14.1 µM [inhibitor, full curve]	
CCN(CC(=O)Nc1ccccc1C(F)(F)F)C(=O)Cn1c(=O)cnc2ccccc21		inactive: -0.0294%
O=C(Cn1c(-c2ccccc2)noc1=O)Nc1ccc(N2CCCCCC2)cc1	inconclusive: 56.2 µM [inhibitor, single point]	
O=C(Nc1ccc2c(c1)OC1(CCCC1)O2)C1CC1	inconclusive: 39.8 µM [inhibitor, partial curve]	
